The text below walks through data of the supplement of paper PMC12217912.

The other results are listed elsewhere or left out. Sequences were assembled here from the parent chain. Values near 0.05 are background.

B1: TEV protease; numbered along this chain (parent)
chain: MGESLFKGPRDYNPISSSICHLTNESDGHTTSLYGIGFGPFIITNKHLFRRNNGTLVVQSLHGVFKVKDTTTLQQHLVDGRDMIIIRMPKDFPPFPQKLKFREPQREERICLVTTNFQTKSMSSMVSDTSCTFPSGDGIFWKHWIQTKDGQCGSPLVSTRDGFIVGIHSASNFTNTNNYFTSVPKNFMELLTNQEAQQWVSGWRLNADSVLWGGHKVFMVKPEEPFQPVKEATQL

The variants in this experiment derive from B1. Briefly: raw area under fraction-flipped curve 0-4 h after induction (AUC4h, not background-subtracted), DNA-recorder readout of cleavage of the substrate (dimensionless); higher = more cleavage of the substrate by the protease variant. The following applies: temperature: 34 °C; time window: 0-4 h after rhamnose induction. How it is done: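 In vivo DNA recorder in E. coli TOP10(DE3) ΔrhaA at 34 °C. Each TEVp single-site mutant (parent TEVp 0) is paired with a single-site variant of the 7-mer TEVs (canonical ENLYFQ|S). The substrate sits between flexible linkers in a Bxb1-sfGFP-TEVs-SsrA fusion, so cleavage stabilises Bxb1 and speeds flipping of a recombination array, read by NGS. The value is the raw area under the fraction-flipped curve over 0-4 h after rhamnose induction (AUC4h), with ≥20 reads per time point. It is not background-subtracted; inactive controls average about 0.047.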
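Note: Bxb1 expression induced with 0.2% (w/v) L-rhamnose at OD600 near 0.5, cultures sampled hourly, flipped fraction per protease–substrate barcode pair counted by paired-end Illumina sequencing.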

Turning to MGESLFKGPRDYNPISSSICHLTNETDGHTTSLYGIGFGPFIITNKHLFRRNNGTLVVQSLHGVFKVKDTTTLQQHLVDGRDMIIIRMPKDFPPFPQKLKFREPQREERICLVTTNFQTKSMSSMVSDTSCTFPSGDGIFWKHWIQTKDGQCGSPLVSTRDGFIVGIHSASNFTNTNNYFTSVPKNFMELLTNQEAQQWVSGWRLNADSVLWGGHKVFMVKPEEPFQPVKEATQL [S26T], the “area with substrate ENLYAQS” value stood at 0.0794, the “area with substrate ENLYCQS” value stood at 0.0834, the “area with substrate ENLYDQS” value stood at 0.0703 and the “area with substrate ENLYEQS” value was found to be 0.0693. Besides, the “area with substrate ENLYGQS” value amounted to 0.0757, the “area with substrate ENLYHQS” value stood at 0.0699, the “area with substrate ENLYIQS” value worked out at 0.115 and the “area with substrate ENLYKQS” value is 0.0878. The “area with substrate ENLYMQS” value came out at 0.08, the “area with substrate ENLYPQS” value came to 0.0684, the “area with substrate ENLYRQS” value worked out at 0.0556 and the “area with substrate ENLYSQS” value came to 0.0596. Also, the “area with substrate ENLYWQS” value came to 0.0535 and the “area with substrate ENLYYQS” value was found to be 0.0593.
In the case of MGESLFKGPRDYNPISRSICHLTNESDGHTTSLYGIGFGPFIITNKHLFRRNNGTLVVQSLHGVFKVKDTTTLQQHLVDGRDMIIIRMPKDFPPFPQKLKFREPQREERICLVTTNFQTKSMSSMVSDTSCTFPSGDGIFWKHWIQTKDGQCGSPLVSTRDGFIVGIHSASNFTNTNNYFTSVPKNFMELLTNQEAQQWVSGWRLNADSVLWGGHKVFMVKPEEPFQPVKEATQL [S17R], the “area with substrate ENLYAQS” value came out at 0.0569, the “area with substrate ENLYDQS” value was found to be 0.0624, the “area with substrate ENLYEQS” value was found to be 0.0583 and the “area with substrate ENLYGQS” value worked out at 0.0671. Besides, the “area with substrate ENLYHQS” value amounted to 0.0618, the “area with substrate ENLYIQS” value came to 0.178, the “area with substrate ENLYKQS” value amounted to 0.0551 and the “area with substrate ENLYMQS” value was 0.0897. The “area with substrate ENLYNQS” value came out at 0.0722, the “area with substrate ENLYPQS” value stood at 0.0749, the “area with substrate ENLYSQS” value is 0.0768 and the “area with substrate ENLYTQS” value was 0.0905. For the same variant, the “area with substrate ENLYVQS” value turned out to be 0.138, the “area with substrate ENLYWQS” value is 0.0862 and the “area with substrate ENLYYQS” value came to 0.0638.
Turning to MGESLFKGPRDYNPISHSICHLTNESDGHTTSLYGIGFGPFIITNKHLFRRNNGTLVVQSLHGVFKVKDTTTLQQHLVDGRDMIIIRMPKDFPPFPQKLKFREPQREERICLVTTNFQTKSMSSMVSDTSCTFPSGDGIFWKHWIQTKDGQCGSPLVSTRDGFIVGIHSASNFTNTNNYFTSVPKNFMELLTNQEAQQWVSGWRLNADSVLWGGHKVFMVKPEEPFQPVKEATQL [S17H], the “area with substrate ENLYAQS” value was determined as 0.0882, the “area with substrate ENLYDQS” value amounted to 0.0573, the “area with substrate ENLYEQS” value is 0.084 and the “area with substrate ENLYGQS” value came to 0.0799. Also, the “area with substrate ENLYHQS” value turned out to be 0.0742, the “area with substrate ENLYIQS” value was 0.128, the “area with substrate ENLYKQS” value is 0.0585 and the “area with substrate ENLYLQS” value was 0.0532. Also, the “area with substrate ENLYNQS” value is 0.0769, the “area with substrate ENLYPQS” value came out at 0.043, the “area with substrate ENLYQQS” value was found to be 0.0684 and the “area with substrate ENLYSQS” value came to 0.0796. The “area with substrate ENLYTQS” value amounted to 0.0929, the “area with substrate ENLYVQS” value turned out to be 0.161 and the “area with substrate ENLYYQS” value is 0.0633.
As to MGESLFKGPRDYNPISSSICHLTNESDWHTTSLYGIGFGPFIITNKHLFRRNNGTLVVQSLHGVFKVKDTTTLQQHLVDGRDMIIIRMPKDFPPFPQKLKFREPQREERICLVTTNFQTKSMSSMVSDTSCTFPSGDGIFWKHWIQTKDGQCGSPLVSTRDGFIVGIHSASNFTNTNNYFTSVPKNFMELLTNQEAQQWVSGWRLNADSVLWGGHKVFMVKPEEPFQPVKEATQL [G28W], the “area with substrate ENLYAQS” value turned out to be 0.0536, the “area with substrate ENLYCQS” value came out at 0.0701, the “area with substrate ENLYDQS” value was 0.0557 and the “area with substrate ENLYEQS” value worked out at 0.0584. The “area with substrate ENLYGQS” value is 0.0619, the “area with substrate ENLYHQS” value turned out to be 0.0646, the “area with substrate ENLYIQS” value turned out to be 0.0851 and the “area with substrate ENLYKQS” value amounted to 0.0566. Besides, the “area with substrate ENLYLQS” value was found to be 0.0787, the “area with substrate ENLYMQS” value was 0.0618, the “area with substrate ENLYNQS” value turned out to be 0.0579 and the “area with substrate ENLYPQS” value is 0.052. Moreover, the “area with substrate ENLYQQS” value is 0.0541, the “area with substrate ENLYRQS” value turned out to be 0.055, the “area with substrate ENLYSQS” value was found to be 0.0641 and the “area with substrate ENLYVQS” value came out at 0.083. In addition, the “area with substrate ENLYWQS” value is 0.0533 and the “area with substrate ENLYYQS” value was 0.0492.
For the variant MGESLFKGPRDYNPISSSICHLTNESDGHTTSLYGIGFGPFIITNKHLFRRNNGTLVVQSLHGVFKVKDTTTLQQHLVDGRDMIIIRMPKDFPPFPQKLKFREPQREERICLVTTNFQTKSMSSMVSDTSCTFPSGDGIFWKHWIQTKDGQCGSPLVSTRTGFIVGIHSASNFTNTNNYFTSVPKNFMELLTNQEAQQWVSGWRLNADSVLWGGHKVFMVKPEEPFQPVKEATQL [D161T], the “area with substrate ENLYAQS” value came to 0.0677, the “area with substrate ENLYDQS” value was determined as 0.0584, the “area with substrate ENLYEQS” value was determined as 0.0712 and the “area with substrate ENLYGQS” value is 0.0584. Besides, the “area with substrate ENLYHQS” value came to 0.068, the “area with substrate ENLYIQS” value was 0.0741, the “area with substrate ENLYKQS” value amounted to 0.0349 and the “area with substrate ENLYLQS” value worked out at 0.0781. Further, the “area with substrate ENLYMQS” value was determined as 0.0884, the “area with substrate ENLYNQS” value was 0.0626, the “area with substrate ENLYPQS” value worked out at 0.0611 and the “area with substrate ENLYQQS” value turned out to be 0.0535. In addition, the “area with substrate ENLYSQS” value was determined as 0.0597, the “area with substrate ENLYVQS” value amounted to 0.107, the “area with substrate ENLYWQS” value was determined as 0.0697 and the “area with substrate ENLYYQS” value was 0.0357.
Consider MGESLFKGPRDYNPISSSICHLTNESDGHTTSLYGIGFGPFIITNKHLFRRNNGTLVVQSLHGVFKVKDTTTLQQHLVDGRDMIIIRMPKDFPPFPQKLKFREPQREERICLVTTNFQTKSMSSMVSDTSCTFPSGDGIFWKHWIQTKDGQCGSPLVSTRDGFIVGIHSASNFTNTNNYFTSEPKNFMELLTNQEAQQWVSGWRLNADSVLWGGHKVFMVKPEEPFQPVKEATQL [V183E], for which the “area with substrate ENLYAQS” value amounted to 0.0587, the “area with substrate ENLYDQS” value came out at 0.0475, the “area with substrate ENLYEQS” value was found to be 0.0535 and the “area with substrate ENLYHQS” value turned out to be 0.0554. Further, the “area with substrate ENLYIQS” value is 0.0411, the “area with substrate ENLYMQS” value turned out to be 0.044, the “area with substrate ENLYPQS” value was 0.0441 and the “area with substrate ENLYQQS” value was determined as 0.0472. The “area with substrate ENLYRQS” value was 0.0464, the “area with substrate ENLYSQS” value was determined as 0.0416, the “area with substrate ENLYTQS” value was 0.0486 and the “area with substrate ENLYYQS” value was found to be 0.0523.
For the variant MGESLFKGPRDYNPISSSICHLTNESDGHTTSLYGIGFGPFIITNKHLFRRNNGTLVVQSLHGVFKVKDTTTLQQHLVDGRDMIIIRMPKDFPPFPQKLKFREPQREERICLVTTEFQTKSMSSMVSDTSCTFPSGDGIFWKHWIQTKDGQCGSPLVSTRDGFIVGIHSASNFTNTNNYFTSVPKNFMELLTNQEAQQWVSGWRLNADSVLWGGHKVFMVKPEEPFQPVKEATQL [N116E], the “area with substrate ENLYAQS” value stood at 0.0719, the “area with substrate ENLYDQS” value stood at 0.0613, the “area with substrate ENLYEQS” value is 0.0675 and the “area with substrate ENLYGQS” value stood at 0.0866. Further, the “area with substrate ENLYHQS” value is 0.0716, the “area with substrate ENLYKQS” value is 0.0683, the “area with substrate ENLYLQS” value turned out to be 0.0855 and the “area with substrate ENLYNQS” value was determined as 0.0734. Besides, the “area with substrate ENLYPQS” value was 0.0779, the “area with substrate ENLYRQS” value came to 0.0645, the “area with substrate ENLYSQS” value stood at 0.0745 and the “area with substrate ENLYTQS” value was determined as 0.0729. The “area with substrate ENLYVQS” value is 0.115 and the “area with substrate ENLYWQS” value came to 0.075.
MGESLFKGPRDYNPISSSICHLTNESDGHTTSLYGIGFGPFIITNKHLFRRNNGTLVVQSLHGVFKVKDTTTLQQSLVDGRDMIIIRMPKDFPPFPQKLKFREPQREERICLVTTNFQTKSMSSMVSDTSCTFPSGDGIFWKHWIQTKDGQCGSPLVSTRDGFIVGIHSASNFTNTNNYFTSVPKNFMELLTNQEAQQWVSGWRLNADSVLWGGHKVFMVKPEEPFQPVKEATQL [H76S]: the “area with substrate ENLYAQS” value amounted to 0.0828, the “area with substrate ENLYCQS” value came out at 0.0875, the “area with substrate ENLYDQS” value amounted to 0.0465 and the “area with substrate ENLYEQS” value turned out to be 0.0737. Moreover, the “area with substrate ENLYGQS” value was 0.0662, the “area with substrate ENLYHQS” value worked out at 0.0673, the “area with substrate ENLYIQS” value was determined as 0.0776 and the “area with substrate ENLYKQS” value was determined as 0.0524. For the same variant, the “area with substrate ENLYLQS” value stood at 0.0768, the “area with substrate ENLYMQS” value was determined as 0.0933, the “area with substrate ENLYPQS” value stood at 0.0435 and the “area with substrate ENLYQQS” value is 0.0701. In addition, the “area with substrate ENLYRQS” value came out at 0.0742, the “area with substrate ENLYTQS” value stood at 0.0816, the “area with substrate ENLYVQS” value was determined as 0.138 and the “area with substrate ENLYWQS” value amounted to 0.0765. Further, the “area with substrate ENLYYQS” value is 0.0822.
